Measured values from the supplement of paper PMC4967469.
Lines with a small IC50 respond at low doses; a limit (>, <) means that the fit lies beyond the doses tested. The AUC spans the tested range (256-fold, ending at the top dose) of the same fit; the more sensitive the line, the further below 1. For some assays here: An inferred top dose is not printed in the source and was worked back from the curve model.

Assays:
Assay in all cases: Viability of human cancer cell lines after 72 h of drug (GDSC screen)
AG-014699 = compound: CNCc1ccc(-c2[nH]c3cc(F)cc4c3c2CCNC4=O)cc1 [AG-014699]; conditions: top dose 5 µM; top dose inferred
Experimental: (§1)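 Human cancer cell lines in 384-well plates, medium with 10% serum, drug for 72 h over a 256-fold dose range (nine 2-fold or five 4-fold steps up to the top dose). Adherent lines were fixed and stained with the nucleic acid dye Syto60, suspension lines read with resazurin; signal relative to control wells, capped at 0 and 100%. One two-parameter sigmoid per drug and line, fitted in a mixed model over all curves with the slope shared within a line.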

EHT 1864 = compound: O=c1cc(CN2CCOCC2)occ1OCCCCCSc1ccnc2cc(C(F)(F)F)ccc12 [EHT 1864]; conditions: top dose 10 µM; top dose inferred
Experimental: as §1

NU-7441 = compound: O=c1cc(N2CCOCC2)oc2c(-c3cccc4c3sc3ccccc34)cccc12 [NU-7441]; conditions: top dose 2 µM; top dose inferred
Experimental: as §1

S-Trityl-L-cysteine = compound: N[C@@H](CSC(c1ccccc1)(c1ccccc1)c1ccccc1)C(=O)O [S-Trityl-L-cysteine]; conditions: top dose 5.12 µM; top dose inferred
Experimental: as §1

Phenformin = compound: N=C(N)NC(=N)NCCc1ccccc1 [Phenformin]; conditions: top dose 4000 µM; top dose inferred
Experimental: as §1

Vinorelbine = compound: CCC1=C[C@@H]2CN(C1)Cc1c([nH]c3ccccc13)[C@@](C(=O)OC)(c1cc3c(cc1OC)N(C)[C@H]1[C@@](O)(C(=O)OC)[C@H](OC(C)=O)[C@]4(CC)C=CCN5CC[C@]31[C@@H]54)C2 [Vinorelbine]; conditions: top dose 0.064 µM; top dose inferred
Experimental: as §1

XL-184 = compound: COc1cc2nccc(Oc3ccc(NC(=O)C4(C(=O)Nc5ccc(F)cc5)CC4)cc3)c2cc1OC [XL-184]; conditions: top dose 5.12 µM; top dose inferred
Experimental: as §1

QL-XI-92 = compound: C=CC(=O)Nc1cc(NC(=O)c2ccc(C)c(NC(=O)c3ccno3)c2)cc(C(F)(F)F)c1 [QL-XI-92]; conditions: top dose 10.24 µM; top dose inferred
Experimental: as §1

WHI-P97 = compound: COc1cc2ncnc(Nc3cc(Br)c(O)c(Br)c3)c2cc1OC [WHI-P97]; conditions: top dose 10.24 µM; top dose inferred
Experimental: as §1

Gefitinib = compound: COc1cc2ncnc(Nc3ccc(F)c(Cl)c3)c2cc1OCCCN1CCOCC1 [Gefitinib]; conditions: top dose 0.5 µM
Experimental: as §1

Cell Line | AUC (AG-014699) | IC50 (AG-014699) [µM] | AUC (EHT 1864) | IC50 (EHT 1864) [µM] | AUC (NU-7441) | IC50 (NU-7441) [µM] | AUC (S-Trityl-L-cysteine) | IC50 (S-Trityl-L-cysteine) [µM] | AUC (Phenformin) | IC50 (Phenformin) [µM] | AUC (Vinorelbine) | IC50 (Vinorelbine) [µM] | AUC (XL-184) | IC50 (XL-184) [µM] | AUC (QL-XI-92) | IC50 (QL-XI-92) [µM] | AUC (WHI-P97) | IC50 (WHI-P97) [µM] | AUC (Gefitinib) | IC50 (Gefitinib) [µM]
D-283MED (medulloblastoma, adherent) | 0.969 | > 5 | 0.983 | > 10 | 0.924 | > 2 | 0.989 | > 5.12 | 0.853 | 2690 | 0.964 | > 0.064 | 0.99 | > 5.12 | 0.991 | > 10.2 | 0.991 | > 10.2 | 0.976 | > 0.5
D-502MG (glioma, adherent) | 0.94 | > 5 | 0.973 | > 10 | 0.95 | > 2 | 0.967 | > 5.12 | 0.848 | > 4000 | 0.852 | > 0.064 | 0.861 | > 5.12 | 0.873 | > 10.2 | 0.929 | > 10.2 | 0.966 | > 0.5
DND-41 (T-cell leukaemia, suspension) | 0.984 | > 5 | 0.987 | > 10 | 0.948 | > 2 | 0.815 | 2.4 | 0.687 | 777 | 0.651 | 0.00992 | 0.939 | > 5.12 | 0.849 | 6.37 | 0.953 | > 10.2 | 0.987 | > 0.5
DU-4475 (breast, suspension) | 0.965 | > 5 | 0.942 | > 10 | 0.982 | > 2 | 0.697 | 1.01 | 0.307 | 81.2 | 0.873 | 0.0427 | 0.976 | > 5.12 | 0.878 | 7.15 | 0.967 | > 10.2 | 0.967 | > 0.5
Daudi (Burkitt lymphoma, suspension) | 0.99 | > 5 | 0.935 | > 10 | 0.984 | > 2 | 0.683 | 0.963 | 0.496 | 245 | 0.865 | 0.0448 | 0.881 | 4.16 | 0.787 | 3.83 | 0.982 | > 10.2 | 0.975 | > 0.5
EC-GI-10 (oesophagus, adherent) | 0.981 | > 5 | 0.918 | > 10 | 0.983 | > 2 | 0.915 | > 5.12 | 0.987 | > 4000 | 0.907 | > 0.064 | 0.938 | > 5.12 | 0.989 | > 10.2 | 0.983 | > 10.2 | 0.9 | > 0.5
ES1 (Ewing sarcoma, adherent) | 0.766 | 1.81 | 0.845 | 7.08 | 0.986 | > 2 | 0.696 | 1.13 | 0.46 | 195 | 0.529 | 0.00479 | 0.869 | 4.61 | 0.856 | 8.07 | 0.937 | > 10.2 | 0.986 | > 0.5
ES5 (Ewing sarcoma, adherent) | 0.862 | > 5 | 0.951 | > 10 | 0.855 | 1.99 | 0.979 | > 5.12 | 0.464 | 196 | 0.771 | 0.0283 | 0.803 | 3 | 0.872 | > 10.2 | 0.93 | > 10.2 | 0.982 | > 0.5
ES6 (Ewing sarcoma, adherent) | 0.982 | > 5 | 0.963 | > 10 | 0.968 | > 2 | 0.901 | > 5.12 | 0.666 | 816 | 0.769 | 0.0299 | 0.885 | > 5.12 | 0.964 | > 10.2 | 0.95 | > 10.2 | 0.982 | > 0.5
ES7 (Ewing sarcoma, adherent) | 0.858 | 4.29 | 0.874 | > 10 | 0.873 | > 2 | 0.968 | > 5.12 | 0.4 | 132 | 0.554 | 0.00563 | 0.638 | 0.779 | 0.866 | 9.57 | 0.923 | > 10.2 | 0.983 | > 0.5
EVSA-T (breast, adherent) | 0.991 | > 5 | 0.922 | > 10 | 0.93 | > 2 | 0.782 | 1.83 | 0.722 | 951 | 0.924 | > 0.064 | 0.963 | > 5.12 | 0.986 | > 10.2 | 0.982 | > 10.2 | 0.991 | > 0.5
EW-1 (Ewing sarcoma, semi-adherent) | 0.968 | > 5 | 0.948 | > 10 | 0.974 | > 2 | 0.697 | 1.08 | 0.722 | 1000 | 0.468 | 0.0033 | 0.875 | 4.32 | 0.944 | > 10.2 | 0.924 | > 10.2 | 0.989 | > 0.5
EW-3 (Ewing sarcoma, adherent) | 0.931 | > 5 | 0.949 | > 10 | 0.982 | > 2 | 0.897 | > 5.12 | 0.666 | 779 | 0.915 | > 0.064 | 0.928 | > 5.12 | 0.922 | > 10.2 | 0.922 | > 10.2 | 0.978 | > 0.5
